Assay results as given in PubChem BioAssay AID686970 (National Center for Advancing Translational Sciences (NCATS), 2013).
Hit rate of the full screen: of about 360,000 compounds, about 6,000 (1.7%) were called active. Inconclusive results, whose numbers are uncertain, are shown with a selection of clear calls. Calls follow the shape of the dose curve; as a rule, active = well fitted cell-killing curve with a large enough effect; inconclusive = small, poorly fitted or top-dose-only effect, or effect the other way; inactive = flat fitted curve, though single readings scatter. No potency is given beside an inconclusive call; the fits are too rough.

Test: qHTS for induction of synthetic lethality in tumor cells producing 2HG: qHTS for the HT-1080-NT fibrosarcoma cell line;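 also: NT is the 2HG producing partner of a matched IDH1 knockdown line; nearly all actives have a fitted effect of over 55% in size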
Conditions: HT-1080-NT fibrosarcoma viability, CellTiter-Glo ATP luminescence, 48 h; series mostly up to 46.1 µM
How it was run: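 Luminescent CellTiter-Glo readout after 48 hours of compound exposure at 37 degrees C defined viability of HT-1080-NT cells. Activity was normalized to DMSO wells and cell-free media wells; concentration-response curves were fitted and assigned curve classes.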
Potency is read from the fitted curve at half-maximal effect; tags tell the direction and shape of the fitted curve.

Row | SMILES | Potency
1 | Cc1cccc2cc(-c3ccccc3)c(-c3ccccc3)c[n+]12 | inconclusive [cytotoxic, partial curve, poor fit]
2 | CCOC(=O)c1c(C)nc2sc(C(=O)Nc3ccccc3)c(N)c2c1-c1ccc(OC)cc1 | inconclusive [cytotoxic, partial curve]
3 | O=C1CC(N2CCN(c3ccc(O)cc3)CC2)C(=O)N1Cc1cccs1 (centres undefined) | inconclusive [cytotoxic, partial curve]
4 | Cn1c(=O)c2c(O)c([N+](=O)[O-])c(=O)n(C)c2n(C)c1=O | inactive
5 | Oc1cccnc1CCc1ccccc1 | inconclusive [rising, partial curve]
6 | Clc1ccc(COc2ccccc2CNCc2cccnc2)cc1 | inconclusive [cytotoxic, single point]
7 | O=C(c1cccs1)N1CCc2c([nH]c3ccccc23)C1c1ccc(Cl)cc1 (centres undefined) | inconclusive [cytotoxic, full curve]
8 | Cc1csc(C(C#N)C(=O)c2cc3ccccc3o2)n1 (centres undefined) | inconclusive [cytotoxic, single point]
9 | CCCCn1c(C(C)NC(=O)COC)nc2ccccc21 (centres undefined) | inactive
10 | O=C(NC(NC(=S)Nc1c(Cl)cccc1Cl)C(Cl)(Cl)Cl)c1cccc([N+](=O)[O-])c1 (centres undefined) | inconclusive [cytotoxic, single point]
11 | C=CCNC(=O)c1ccc(CN(c2ccc(OCC)cc2)S(=O)(=O)c2ccc(C)cc2)cc1 | inconclusive [cytotoxic, single point]
12 | CC(C)c1ccc(Nc2n[nH]c(=S)s2)cc1 | inconclusive [rising, single point]
13 | OC[C@@H]1CN(Cc2ccc(F)cc2)C[C@H](n2cnc3c(N4CCCC4)ncnc32)O1 | inconclusive [rising, partial curve, poor fit]
14 | Clc1ccc(-c2cc(C3CCNCC3)[nH]n2)c(Cl)c1 | active: 23.1 µM
15 | O=[N+]([O-])c1ccc(O)c(C(C#Cc2ccccc2)N2CCOCC2)c1 (centres undefined) | inconclusive [cytotoxic, single point]
16 | O=c1c(Br)ccc(Br)cc1Br | active: 3.66 µM
17 | O=C(NC(=S)NNC(=O)c1cccs1)c1ccc(Br)o1 | inconclusive [cytotoxic, single point]
18 | O=C(Nc1ccc(Cn2nnc3ccccc32)cc1)c1ccco1 | inconclusive [cytotoxic, single point]
19 | OC(C#Cc1ccccn1)c1cccs1 (centres undefined) | inconclusive [cytotoxic, single point]
20 | O=C(Nc1ccccc1O)c1c(O)c2c([nH]c1=O)CCCC2 | inconclusive [cytotoxic, partial curve]
21 | C=CC#CC[N+]1(CC#Cc2ccccc2)CCOCC1 | inactive
22 | Cc1ccccc1NC(=O)c1cccc(N2C(=O)C3C4CC(C(Br)C4Br)C3C2=O)c1 (centres undefined) | inactive
23 | S=C(c1ccc2c(c1)OCO2)N1CCN(c2cccc(Cl)c2)CC1 | inconclusive [cytotoxic, partial curve, poor fit]
24 | OCC1OCOC2C(CO)OCOC12 (centres undefined) | inactive
25 | COc1cc(/C=N/NC(=O)COc2c(C)cc([N+](=O)[O-])cc2C)ccc1OC(=O)c1ccccc1 | inconclusive [cytotoxic, single point]

Row | SMILES | Potency
26 | O=C(NCc1ccc2c(c1)OCO2)c1cc([N+](=O)[O-])ccc1N1CCCCC1 | active: 7.31 µM
27 | O=C(Nc1ccc(N2CCOCC2)cc1)c1ccncc1 | inactive
28 | O=C(N/N=C/c1cc(Br)c(Br)o1)c1cc2ccccc2o1 | inconclusive [cytotoxic, single point]
29 | Cc1cccc(NC(=S)NNC(=O)CCn2cc(C)cn2)c1 | active: 1.26 µM
30 | Cc1nc(C)c(-c2csc(Nc3cccc(O)c3)n2)s1 | inconclusive [cytotoxic, single point]
31 | COc1ccc(CNC(=O)Cc2ccc(NC(=O)C3=C(C)OCCS3)cc2)cc1 | inconclusive [cytotoxic, full curve]
32 | N#C/C(=C(/O)c1ccccc1F)c1nc2cc(C(F)(F)F)ccc2s1 | inactive
33 | COc1ccc(-c2nc3c(C)cc(Br)cn3c2Cc2ccsc2)cc1OC | inconclusive [cytotoxic, single point]
34 | COc1ccc(C2C(O)C(c3c[nH]c4ccccc34)=NN2C(=O)CCl)cc1 (centres undefined) | active: 0.461 µM
35 | Cc1cc(Cl)nc(NC(=O)Nc2cccc(Cl)c2)n1 | inconclusive [rising, partial curve]
36 | Cc1ccc(Cl)cc1N1CCN(C(=O)c2cccc3c(=O)c(C)c(-c4ccccc4)oc23)CC1 | inconclusive [cytotoxic, single point]
37 | COC(=O)c1ccc(C)c(NS(=O)(=O)c2ccc(NC(C)=O)cc2)c1 | inconclusive [cytotoxic, single point]
38 | CCOC(=O)c1ccc(NC(=O)C2(c3ccccc3)CCOCC2)cc1 | inactive
39 | O=C(COC(=O)c1ccc(-c2nnc(-c3ccccc3)o2)cc1)c1ccccc1 | inactive
40 | O=C(CN1C2=NCCN2c2ccccc21)C12CC3CC(CC(C3)C1)C2 | active: 20.6 µM
41 | COc1ccc2c(Cl)c(C(=O)NN)sc2c1 | inconclusive [cytotoxic, single point]
42 | Nc1cccc2nc3ccccc3cc12 | active: 18.4 µM
43 | CCc1nc2ccccc2c(C(=O)OCC(=O)Nc2cccc(S(=O)(=O)N3CCOCC3)c2)c1C | inconclusive [cytotoxic, single point]
44 | c1ccc(COc2ncnc3c2ncn3CCCNCC2CCCO2)cc1 (centres undefined) | inactive
45 | CC(C)(C)OC(=O)N1CCN(C(=O)c2[nH]cnc2C(=O)Nc2ccccc2F)CC1 | inactive
46 | Cc1ccc(C2CC(c3ccccc3)=NN2c2ccc(S(N)(=O)=O)cc2)cc1 (centres undefined) | inconclusive [cytotoxic, single point]
47 | CC(NC(=O)Cn1ncc(Cl)c(Cl)c1=O)C12CC3CC(CC(C3)C1)C2 (centres undefined) | active: 18.4 µM
48 | CCOc1ccc2nc(N3CCCC(C(=O)NCCCN4C(C)CCCC4C)C3)sc2c1 (centres undefined) | inconclusive [cytotoxic, single point]
49 | COc1cc(C(=O)OCC#N)ccc1OCc1c(C)noc1C | inconclusive [cytotoxic, partial curve]
50 | Cc1cccc(C)c1NC(=O)Cn1nc(-c2ccc(Cl)s2)ccc1=O | inactive

Row | SMILES | Potency
51 | Cc1ccc(NC(=O)c2cc(-c3cc(F)ccc3OCC3CCCO3)n[nH]2)cc1NS(C)(=O)=O (centres undefined) | inconclusive [cytotoxic, single point]
52 | CC(C)(C)c1ccc(C(=O)O/N=C(\N)Cc2cccs2)cc1 | inconclusive [cytotoxic, single point]
53 | O=C(Oc1cccc2cccnc12)c1ccc(N2C(=O)C3C4CCC(C4)C3C2=O)cc1 (centres undefined) | active: 16.4 µM
54 | CNCc1ccccc1Sc1cccc2ccccc12 | inactive
55 | Cc1cc(C)cc(OC(=O)CS(=O)c2ccc(C(F)(F)F)cc2[N+](=O)[O-])c1 (centres undefined) | active: 20.6 µM
56 | C=CCNC(=O)c1cc(-c2ccncc2)nc2c(C)cc(C)cc12 | inconclusive [cytotoxic, single point]
57 | CCOc1ccc(NC(=O)CSc2nnc(-c3ccccc3Cl)n2Cc2ccco2)cc1 | inconclusive [cytotoxic, single point]
58 | C=C1c2ccccc2O[C@H](C(=O)OCC)[C@H]1OC | inactive
59 | Cc1nc2c(sc3nc4c(cc32)COC(C)(C)C4)c(=O)n1CC(=O)NCc1ccco1 | active: 7.08 µM
60 | O=C(/C=C/c1ccc(Cl)cc1)Nc1ccc(CN2CCOCC2)cc1 | inconclusive [cytotoxic, single point]
61 | COc1cc(/C=C/C(=O)c2ccc([N+](=O)[O-])o2)ccc1O | active: 18.4 µM
62 | COC(=O)/C=C1\OCc2cc(OC)c(OC)cc21 | inconclusive [rising, partial curve]
63 | CSc1ccccc1C(=O)Nc1cccc(C(C)O)c1 (centres undefined) | inactive
64 | Cc1cc2nc(-c3ccc(SCC(=O)Nc4ccc5c(c4)OCCO5)nc3)[nH]c2cc1C | inconclusive [cytotoxic, single point]
65 | O=C(c1ccccc1)c1ccc(OCC(O)CNCc2ccc(F)cc2)cc1 (centres undefined) | inconclusive [cytotoxic, single point]
66 | O=C(C1CCCN(S(=O)(=O)c2cccc3nsnc23)C1)N1CCc2ccccc21 (centres undefined) | inactive
67 | O=C(Cc1ccccc1)NCC(=O)Nc1cc(Cl)ccc1Cl | inconclusive [cytotoxic, single point]
68 | O=[N+]([O-])c1ccc(Oc2ccc(F)cc2Br)c2ccncc12 | active: 16.4 µM
69 | N#Cc1ccc(Nc2nc(-c3ccccc3)cs2)cc1 | inconclusive [cytotoxic, single point]
70 | COC(=O)CN1C(=O)C(O)(CC(=O)c2ccc(C)cc2)c2ccccc21 (centres undefined) | inactive
71 | CCOC(=O)C/C(=N\Nc1ncnc2ccccc12)c1ccccc1 | inactive
72 | CC1C(=O)N2CCCc3cc(NC(=O)C(=O)NCCc4ccc(F)cc4)cc1c32 (centres undefined) | active: 18.4 µM
73 | CCCNC(=O)C1(C)CCCN(Cc2ccc(-c3ccccc3)o2)C1 (centres undefined) | inactive
74 | O=C(c1c[nH]c(C(=O)C(Cl)(Cl)Cl)c1)c1c(F)cccc1F | inconclusive [cytotoxic, single point]
